# This is one part of the list.
# How the values were obtained:
# Experiment in all cases: glycan array binding signal (z-score within array); higher = stronger binding
# Conditions in all cases: glycan notation: IUPAC condensed, linker removed
# [1] = biological target: GlcNAc(b1-2)[GlcNAc(b1-4)]Man(a1-3)[GlcNAc(b1-4)][GlcNAc(b1-2)[GlcNAc(b1-6)]Man(a1-6)]Man(b1-4)GlcNAc(b1-4)GlcNAc
# Method in brief: (§1)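 Glycan array binding is given as a within-array Z-score, which can be read as non-binding when negative. The arrays, 3228 of them, came from the Consortium for Functional Glycomics database and were retained only where the protein sequence was available. Z-scores were averaged across arrays of the same protein sequence at different concentrations or buffers and across linkers.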
# [2] = biological target: GlcNAc(b1-2)[GlcNAc(b1-4)]Man(a1-3)[GlcNAc(b1-4)][GlcNAc(b1-2)[GlcNAc(b1-6)]Man(a1-6)]Man(b1-4)GlcNAc(b1-4)[Fuc(a1-6)]GlcNAc
# Method in brief: as §1
# [3] = biological target: GlcNAc(b1-2)[GlcNAc(b1-6)]Man(a1-6)[GlcNAc(b1-2)Man(a1-3)]Man(b1-4)GlcNAc(b1-4)GlcNAc
# Method in brief: as §1
# [4] = biological target: GlcNAc(b1-2)[GlcNAc(b1-6)]Man(a1-6)[GlcNAc(b1-2)Man(a1-3)]Man(b1-4)GlcNAc(b1-4)[Fuc(a1-6)]GlcNAc
# Method in brief: as §1
# [5] = biological target: GlcNAc(b1-2)[GlcNAc(b1-6)]Man(a1-6)[GlcNAc(b1-4)][GlcNAc(b1-2)Man(a1-3)]Man(b1-4)GlcNAc(b1-4)GlcNAc
# Method in brief: as §1
# [6] = biological target: GlcNAc(b1-3)Fuc
# Method in brief: as §1
# [7] = biological target: GlcNAc(b1-3)Gal
# Method in brief: as §1
# [8] = biological target: GlcNAc(b1-3)Gal(b1-3)GalNAc
# Method in brief: as §1
# [9] = biological target: GlcNAc(b1-3)Gal(b1-4)Glc
# Method in brief: as §1
# [10] = biological target: GlcNAc(b1-3)Gal(b1-4)GlcNAc
# Method in brief: as §1
# [11] = biological target: GlcNAc(b1-3)Gal(b1-4)GlcNAc(b1-2)Man(a1-3)[GlcNAc(b1-3)Gal(b1-4)GlcNAc(b1-2)Man(a1-6)]Man(b1-4)GlcNAc(b1-4)GlcNAc
# Method in brief: as §1
# [12] = biological target: GlcNAc(b1-3)Gal(b1-4)GlcNAc(b1-2)Man(a1-3)[GlcNAc(b1-3)Gal(b1-4)GlcNAc(b1-2)Man(a1-6)]Man(b1-4)GlcNAc(b1-4)[Fuc(a1-6)]GlcNAc
# Method in brief: as §1
# [13] = biological target: GlcNAc(b1-3)Gal(b1-4)GlcNAc(b1-2)[GlcNAc(b1-3)Gal(b1-4)GlcNAc(b1-6)]Man(a1-6)[GlcNAc(b1-3)Gal(b1-4)GlcNAc(b1-2)Man(a1-3)]Man(b1-4)GlcNAc(b1-4)GlcNAc
# Method in brief: as §1
# [14] = biological target: GlcNAc(b1-3)Gal(b1-4)GlcNAc(b1-3)Gal(b1-4)GlcNAc
# Method in brief: as §1
# [15] = biological target: GlcNAc(b1-3)Gal(b1-4)GlcNAc(b1-3)Gal(b1-4)GlcNAc(b1-2)Man(a1-3)[GlcNAc(b1-3)Gal(b1-4)GlcNAc(b1-3)Gal(b1-4)GlcNAc(b1-2)Man(a1-6)]Man(b1-4)GlcNAc(b1-4)GlcNAc
# Method in brief: as §1
# [16] = biological target: GlcNAc(b1-3)Gal(b1-4)GlcNAc(b1-3)Gal(b1-4)GlcNAc(b1-2)Man(a1-3)[GlcNAc(b1-3)Gal(b1-4)GlcNAc(b1-3)Gal(b1-4)GlcNAc(b1-2)Man(a1-6)]Man(b1-4)GlcNAc(b1-4)[Fuc(a1-6)]GlcNAc
# Method in brief: as §1
# [17] = biological target: GlcNAc(b1-3)Gal(b1-4)GlcNAc(b1-3)Gal(b1-4)GlcNAc(b1-2)[GlcNAc(b1-3)Gal(b1-4)GlcNAc(b1-3)Gal(b1-4)GlcNAc(b1-6)]Man(a1-6)[GlcNAc(b1-3)Gal(b1-4)GlcNAc(b1-3)Gal(b1-4)GlcNAc(b1-2)Man(a1-3)]Man(b1-4)GlcNAc(b1-4)[Fuc(a1-6)]GlcNAc
# Method in brief: as §1
# [18] = biological target: GlcNAc(b1-3)Gal(b1-4)GlcNAc(b1-3)Gal(b1-4)GlcNAc(b1-3)Gal(b1-4)GlcNAc(b1-2)Man(a1-3)[GlcNAc(b1-3)Gal(b1-4)GlcNAc(b1-3)Gal(b1-4)GlcNAc(b1-3)Gal(b1-4)GlcNAc(b1-2)Man(a1-6)]Man(b1-4)GlcNAc(b1-4)GlcNAc
# Method in brief: as §1
# [19] = biological target: GlcNAc(b1-3)Gal(b1-4)GlcNAc(b1-3)Gal(b1-4)GlcNAc(b1-3)Gal(b1-4)GlcNAc(b1-2)Man(a1-3)[GlcNAc(b1-3)Gal(b1-4)GlcNAc(b1-3)Gal(b1-4)GlcNAc(b1-3)Gal(b1-4)GlcNAc(b1-2)Man(a1-6)]Man(b1-4)GlcNAc(b1-4)[Fuc(a1-6)]GlcNAc
# Method in brief: as §1
# [20] = biological target: GlcNAc(b1-3)Gal(b1-4)GlcNAc(b1-3)Gal(b1-4)GlcNAc(b1-3)Gal(b1-4)GlcNAc(b1-2)[GlcNAc(b1-3)Gal(b1-4)GlcNAc(b1-3)Gal(b1-4)GlcNAc(b1-3)Gal(b1-4)GlcNAc(b1-6)]Man(a1-6)[GlcNAc(b1-3)Gal(b1-4)GlcNAc(b1-3)Gal(b1-4)GlcNAc(b1-3)Gal(b1-4)GlcNAc(b1-2)Man(a1-3)]Man(b1-4)GlcNAc(b1-4)[Fuc(a1-6)]GlcNAc
# Method in brief: as §1
# [21] = biological target: GlcNAc(b1-3)Gal(b1-4)GlcNAc(b1-3)Gal(b1-4)GlcNAc(b1-3)Gal(b1-4)GlcNAc(b1-3)Gal(b1-4)GlcNAc(b1-2)Man(a1-3)[GlcNAc(b1-3)Gal(b1-4)GlcNAc(b1-3)Gal(b1-4)GlcNAc(b1-3)Gal(b1-4)GlcNAc(b1-3)Gal(b1-4)GlcNAc(b1-2)Man(a1-6)]Man(b1-4)GlcNAc(b1-4)GlcNAc
# Method in brief: as §1
# [22] = biological target: GlcNAc(b1-3)Gal(b1-4)GlcNAc(b1-3)Gal(b1-4)GlcNAc(b1-3)Gal(b1-4)GlcNAc(b1-3)Gal(b1-4)GlcNAc(b1-2)Man(a1-3)[GlcNAc(b1-3)Gal(b1-4)GlcNAc(b1-3)Gal(b1-4)GlcNAc(b1-3)Gal(b1-4)GlcNAc(b1-3)Gal(b1-4)GlcNAc(b1-2)Man(a1-6)]Man(b1-4)GlcNAc(b1-4)[Fuc(a1-6)]GlcNAc
# Method in brief: as §1
# [23] = biological target: GlcNAc(b1-3)Gal(b1-4)GlcNAc(b1-3)Gal(b1-4)GlcNAc(b1-3)Gal(b1-4)GlcNAc(b1-3)Gal(b1-4)GlcNAc(b1-2)[GlcNAc(b1-3)Gal(b1-4)GlcNAc(b1-3)Gal(b1-4)GlcNAc(b1-3)Gal(b1-4)GlcNAc(b1-3)Gal(b1-4)GlcNAc(b1-6)]Man(a1-6)[GlcNAc(b1-3)Gal(b1-4)GlcNAc(b1-3)Gal(b1-4)GlcNAc(b1-3)Gal(b1-4)GlcNAc(b1-3)Gal(b1-4)GlcNAc(b1-2)Man(a1-3)]Man(b1-4)GlcNAc(b1-4)[Fuc(a1-6)]GlcNAc
# Method in brief: as §1
# [24] = biological target: GlcNAc(b1-3)Gal(b1-4)GlcNAc(b1-3)Gal(b1-4)GlcNAc(b1-3)GalNAc
# Method in brief: as §1
# [25] = biological target: GlcNAc(b1-3)Gal(b1-4)GlcNAc(b1-3)GalNAc
# Method in brief: as §1
# [26] = biological target: GlcNAc(b1-3)Gal(b1-4)GlcNAc(b1-3)[GlcNAc(b1-3)Gal(b1-4)GlcNAc(b1-3)]GalNAc
# Method in brief: as §1
# [27] = biological target: GlcNAc(b1-3)Gal(b1-4)GlcNAc(b1-6)[Gal(b1-3)]GalNAc
# Method in brief: as §1
# [28] = biological target: GlcNAc(b1-3)Gal(b1-4)GlcNAc(b1-6)[GlcNAc(b1-3)Gal(b1-3)]GalNAc
# Method in brief: as §1
# [29] = biological target: GlcNAc(b1-3)Gal(b1-4)GlcNAc(b1-6)[GlcNAc(b1-3)]Gal(b1-4)GlcNAc
# Method in brief: as §1
# [30] = biological target: GlcNAc(b1-3)GalNAc
# Method in brief: as §1
# [31] = biological target: GlcNAc(b1-3)Man
# Method in brief: as §1
# [32] = biological target: GlcNAc(b1-3)[GlcNAc(b1-4)][GlcNAc(b1-6)]GlcNAc
# Method in brief: as §1
# [33] = biological target: GlcNAc(b1-3)[GlcNAc(b1-6)]Gal(b1-4)GlcNAc
# Method in brief: as §1
# [34] = biological target: GlcNAc(b1-3)[GlcNAc(b1-6)]GalNAc
# Method in brief: as §1
# [35] = biological target: GlcNAc(b1-4)Gal(b1-4)GlcNAc
# Method in brief: as §1
# [36] = biological target: GlcNAc(b1-4)GlcNAc
# Method in brief: as §1
# [37] = biological target: GlcNAc(b1-4)GlcNAc(b1-4)GlcNAc
# Method in brief: as §1
# [38] = biological target: GlcNAc(b1-4)GlcNAc(b1-4)GlcNAc(b1-4)GlcNAc(b1-4)GlcNAc
# Method in brief: as §1
binder,measurement,setting,value
SP16665A-bot-344-23-344 (Bacteroides ovatus) (protein) SDNEFPDFDYQTVYFANQYGLRTIELGESEFVDNTLDNQHKMVIKAAWGGGYTNRNNVVINFKVDESLCDNLYFKDTDQPLVPMPASYYTLASDRIAIPKGQIMAGVEVQLTDDFFADEKSISENYVIPLLMTNVQGADSILQGKPVVENPVLTNAGDWSILPQNFVLYAVKYVNPWHGEYLRRGIDHATVAGTSKDIIRHEQFVENDEVVNISTKSMKDNLLTLKTKDESGKDISYTVRLSFAEDGSCTVHSGSQNVVVSGSGKFVSKGEKNSLGGKDRNAIYLDYTVNLTDNNIQLATKDTLVLRTRNVYGGKSLEVVRK,glycan array binding signal (z-score),[1],-0.391
same,glycan array binding signal (z-score),[2],-0.358
same,glycan array binding signal (z-score),[3],-0.299
same,glycan array binding signal (z-score),[4],-0.15
same,glycan array binding signal (z-score),[5],0.157
same,glycan array binding signal (z-score),[6],0.371
same,glycan array binding signal (z-score),[7],-0.64
same,glycan array binding signal (z-score),[8],-0.206
same,glycan array binding signal (z-score),[9],0.17
same,glycan array binding signal (z-score),[10],-0.233
same,glycan array binding signal (z-score),[11],-0.006
same,glycan array binding signal (z-score),[12],0.083
same,glycan array binding signal (z-score),[13],0.155
same,glycan array binding signal (z-score),[14],0.055
same,glycan array binding signal (z-score),[15],0.131
same,glycan array binding signal (z-score),[16],0.848
same,glycan array binding signal (z-score),[17],-0.141
same,glycan array binding signal (z-score),[18],-0.146
same,glycan array binding signal (z-score),[19],-0.318
same,glycan array binding signal (z-score),[20],0.006
same,glycan array binding signal (z-score),[21],-0.226
same,glycan array binding signal (z-score),[22],-0.027
same,glycan array binding signal (z-score),[23],0.133
same,glycan array binding signal (z-score),[24],-0.503
same,glycan array binding signal (z-score),[25],0.5
same,glycan array binding signal (z-score),[26],0.148
same,glycan array binding signal (z-score),[27],0.223
same,glycan array binding signal (z-score),[28],-0.227
same,glycan array binding signal (z-score),[29],-0.086
same,glycan array binding signal (z-score),[30],-0.484
same,glycan array binding signal (z-score),[31],-0.188
same,glycan array binding signal (z-score),[32],-0.192
same,glycan array binding signal (z-score),[33],-0.304
same,glycan array binding signal (z-score),[34],-0.544
same,glycan array binding signal (z-score),[35],-0.193
same,glycan array binding signal (z-score),[36],-0.421
same,glycan array binding signal (z-score),[37],-0.575
same,glycan array binding signal (z-score),[38],-0.452
